# Results filed as inconclusive are left out. The call rests on the fitted dose curve; in most records, active means well fitted curve in the direction sought with a large enough effect in the repeat runs; inconclusive means weak or mixed curves; inactive means no such curve, though single readings can be large; an effect the other way counts as inactive or inconclusive. The source holds several records for some structures; these can differ, active in one and inactive in another. The source holds more than one record for some entries. The other results are left out here. An entry can have further records. The values listed for one entry repeat one measurement across runs, samples, wells, individuals or studies. What stands in brackets tells the records apart. Letters hold for one entry only.
# Tests used:
# [1] = qHTS assay to identify small molecule agonists of the constitutive androstane receptor (CAR) signaling pathway - cell viability counter screen (AID 1224836); details: HepG2-CYP2B6-hCAR viability, CellTiter-Fluor, 23 h, PK11195 added to every well; series mostly up to 92.4 µM; further: nearly all actives have a fitted effect of over 45% in size
# Summary of the method: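 Cell viability multiplexed with the CAR agonist screen: CellTiter-Fluor fluorescence after 23 hr at 37 C. HepG2-CYP2B6-hCAR cells got compounds at 15 concentrations with PK11195 at 0.75 uM final.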
# [2] = qHTS assay to identify small molecule antagonists of the constitutive androstane receptor (CAR) signaling pathway - cell viability counter screen (AID 1224837); details: HepG2-CYP2B6-hCAR viability, CellTiter-Fluor, 23 h, co-treated with 50 nM CITCO; series mostly up to 92.4 µM; further: nearly all actives have a fitted effect of over 45% in size
# Summary of the method: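 CITCO at 50 nM final was added alongside compounds (15 concentrations) to double-stable hCAR/CYP2B6-2.2kb HepG2 cells. Following 23 hr at 37 C, cell viability was quantified by CellTiter-Fluor fluorescence intensity.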
# [3] = A CellTox Green Cytotoxicity Assay to monitor cytotoxicity in HEK293 cells - 16 hour (AID 1224888); details: CellTox Green fluorescence; series mostly up to 76.8 µM; further: nearly all actives have a fitted effect of over 35% in size
# Summary of the method: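 Real-time, in one plate: 600 HEK293 cells/well with dead-cell DNA dye, pinned compound after 5 h, 37 C incubation over 40 h; viable cells give no appreciable fluorescence.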
# [4] = qHTS assay to identify small molecule antagonists of the TGF-beta/Smad signaling pathway - cell viability counter screen (AID 1346824); details: SBE-bla HEK293T viability, CellTiter-Glo luminescence; series mostly up to 76.8 µM; further: nearly all actives have a fitted effect of over 50% in size
# Summary of the method: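 Cytotoxicity counter-screen run in the same wells as the beta-lactamase Smad reporter read: CellTiter-Glo luminescence after 30 min at room temperature. HEK 293T SBE-bla cells had 5 hr compound exposure at 37 C with TGF-beta1 (0.25 ng/mL stock).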
# Potency means the concentration at half of the fitted maximal effect.
compound,measurement,setting,value
CC(C)CC(C)(c1ccc(O)cc1)c1ccc(O)cc1,Potency,[1],active: 61.3 µM [sample A] and inactive [sample B]
same,Potency,[2],active: 61.3 µM [sample A] and inactive [sample B]
same,Potency,[3],active: 39 µM [sample A] and inactive [sample B]
Clc1ccc(COC(Cn2ccnc2)c2ccc(Cl)cc2Cl)cc1 (stereo unspecified),Potency,[3],active: 48.8 µM [sample A] and inactive [sample B]
N#CSCSC#N,Potency,[4],active: 50.1 µM [sample A] and inactive [sample B]
O=c1[nH]c2ccccc2n1C1CCN(CCCC(c2ccc(F)cc2)c2ccc(F)cc2)CC1,Potency,[4],active: 49 µM [sample A] and inactive [sample B]

# Reference: PubChem BioAssay (Tox21)
